Measured values as given in PubChem BioAssay AID686978 (National Center for Advancing Translational Sciences (NCATS), 2013).
Screen size: about 420,000 compounds; about 64,000 (15%) were called active. The inconclusive results got no clear call from the source; some entries with a clear call stand among them for comparison. Calls come from the whole dose curve; as a rule, active = well fitted inhibition curve with a large enough effect; inconclusive = small, poorly fitted or top-dose-only effect; inactive = flat fitted curve, though single readings scatter. Potencies of inconclusive entries are left out as doubtful fits. Some compounds were tested as several samples or in several runs, with calls that do not always agree.
% is set by controls: 0 for no effect and ±100 for the full control effect; potency is the fitted concentration of half-maximal effect; tags give direction and shape of the fitted curve.

Assay: qHTS for Inhibitors of human tyrosyl-DNA phosphodiesterase 1 (TDP1): qHTS in cells in absence of CPT; note: nearly all actives have a fitted effect of over 55% in size
Settings: DT40 Tdp1-/- hTDP1 cells, no CPT, ATP luminescence, 48 h; activity change, negative = growth inhibition: at 46.2 µM (top of the series) unless noted
Summary of the method: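 Readout: luminescence from CellTiter-Glo after 30 min in the dark at RT. Cells: DT40 Tdp1-/- with stable hTDP1, 400/well. Exposure: compounds alone, ≥48 hr, 37 °C.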
With O=C(OCc1ccccc1)N1CCC2CC1c1c2cccc1N1CCOCC1 (stereo not given) the Potency was inconclusive [inhibitor, single point]. For COc1ccc(-n2c(SCC(=O)NCc3ccco3)nc3sc4c(c3c2=O)CCN(C)C4)cc1, the Potency was inconclusive [inhibitor, single point]. In the case of CCOc1ccc(NC(=S)N2CCN(S(=O)(=O)c3ccccc3)CC2)cc1, the “activity change, negative = growth inhibition” value is reported as inactive: -10.5%. With CC(C)(CN1CCNCC1)NS(=O)(=O)c1ccc(Cl)cc1 the Potency was inconclusive [inhibitor, single point]. In the case of CC1(C)C=C(c2ccc(O)cc2)CC(C)(C)N1, the “activity change, negative = growth inhibition” value is reported as inactive: -6.55%. With Cc1ccc(Oc2nnc(-c3ccccc3)c3ccccc23)cc1 the Potency was inconclusive [inhibitor, single point]. For CCOC(=O)C1=CCN(S(=O)(=O)c2cccc(Cl)c2)C1c1ccc(Br)cc1 (stereo not given), the Potency was inconclusive [inhibitor, single point]. For C[C@@H]1CN([C@H](C)CO)C(=O)c2c(c3ccccc3n2C)-c2ccccc2CO[C@@H]1CN(C)C(=O)Nc1ccccc1C(F)(F)F, the “activity change, negative = growth inhibition” value was inactive: -0.0301%. In the case of c1ccc(Cn2ncc3c(N4CCN(C(c5ccccc5)c5ccccc5)CC4)ncnc32)cc1, the Potency is reported as active: 20.6 µM. With CCCCn1c(=O)c2oc3ccccc3c2n(CC(=O)Nc2ccc(CC)cc2)c1=O the Potency was inconclusive [inhibitor, single point]. With O=C(c1ccc2c3c(cccc13)CC2)C1CCCN(Cc2ccncc2)C1 (stereo not given) the Potency was active: 9.2 µM. With O=C(CN(C(=O)Cn1nnc(-c2cccs2)n1)c1ccc2c(c1)OCCO2)NC1CCCCC1 the Potency was inconclusive [inhibitor, single point]. In the case of COc1ccccc1NC(=O)c1ccc(COc2ccc(C)c(C)c2)o1, the Potency is reported as inconclusive [inhibitor, single point]. In the case of COc1ccc(Br)cc1CNC(=O)C1CCN(S(=O)(=O)N2CCC(C)CC2)CC1, the Potency is reported as inconclusive [inhibitor, partial curve]. In the case of Cc1ccccc1NC(=O)CN1CCCC1, the “activity change, negative = growth inhibition” value is reported as inactive: -1.24%. For COc1ccc(NC(=O)CS(=O)c2ccc(Br)cc2)cc1 (stereo not given), the “activity change, negative = growth inhibition” value was inactive: 16.2%. For Cn1c(SCC(=O)NNC(=O)c2ccccc2Br)nnc1C(F)(F)F, the “activity change, negative = growth inhibition” value was inactive: -0.87%. In the case of O=C1CC(c2ccc3c(c2)OCO3)c2cc3c(cc2N1)OCCO3 (stereo not given), the Potency is reported as inconclusive [inhibitor, single point]. In the case of COCCCNC(=O)c1c(NC(=O)c2cccs2)sc2c1CCCC2, the Potency is reported as inconclusive [inhibitor, single point]. For OC[C@@H]1CN(Cc2ccncc2)C[C@H](n2cnc3c(NC4CCCC4)ncnc32)O1, the “activity change, negative = growth inhibition” value was inactive: -2.91%. In the case of C[C@@H]1CCCCO[C@@H](CN(C)C(=O)c2ccccc2)[C@@H](C)CN([C@H](C)CO)C(=O)c2cc(N(C)C)ccc2O1, the “activity change, negative = growth inhibition” value is reported as inactive: -19.6%. In the case of CCOC(=O)c1cc(=O)n2nc(-c3ccccc3F)nc2s1, the Potency is reported as active: 23.1 µM. In the case of COc1ccc(-c2cnnn2-c2ccc(NC(=O)c3ccccc3OC)cc2)cc1, the Potency is reported as inconclusive [inhibitor, partial curve, poor fit]. For COc1ccc(CCNC(=O)CN2C(=O)COc3ccc(S(=O)(=O)N4CCCC4)cc32)c(OC)c1, the Potency was active: 16.4 µM. For Cc1c(C(=O)NCc2cccc(Cl)c2)sc2nc3n(c(=O)c12)CCCC3, the Potency was inconclusive [inhibitor, single point]. In the case of Cc1ccc(NC(=O)CC2Oc3ccccc3NC2=O)cc1C (stereo not given), the “activity change, negative = growth inhibition” value is reported as inactive: -20.9%. In the case of COc1ccc(C2=C(N3CCN(c4cccc(C)c4C)CC3)c3ccccc3C2=O)cc1, the Potency is reported as inconclusive [inhibitor, single point]. With O=C(c1ccccc1)c1ccc(OCCO)cc1 the “activity change, negative = growth inhibition” value was inactive: -25.5%. With Cc1ccc2c(c1)c(C)c(C)n2CC(O)Cn1nc(C)c(Br)c1C (stereo not given) the Potency was inconclusive [inhibitor, partial curve, poor fit]. In the case of Cc1noc(C)c1C(=O)N1CCC2(CCCN(C(c3ccccc3)c3ccccc3)C2)CC1, the Potency is reported as active: 23.1 µM. For COc1cc(C2C(C(C)=O)=C(O)C(=O)N2Cc2ccccc2)ccc1O (stereo not given), the “activity change, negative = growth inhibition” value was inactive: 19.2%. For COc1ccc(CN2CCC3(CCC(CNC(=O)C4CCCO4)O3)CC2)c(C)c1C (stereo not given), the “activity change, negative = growth inhibition” value was inactive: -10.1%. In the case of O=C(c1ccc([N+](=O)[O-])cc1)N1CCSC1c1ccccc1 (stereo not given), the Potency is reported as inconclusive [inhibitor, partial curve, poor fit]. For COc1ccc([N+](=O)[O-])cc1NC(=O)CSCc1cc(C)cc(C)c1, the Potency was inconclusive [inhibitor, single point]. In the case of O=[N+]([O-])c1ccc(S(=O)(=O)Nc2nnc(C(F)(F)F)s2)cc1, the “activity change, negative = growth inhibition” value is reported as inactive: 10.4%. With Cc1ccc(S(=O)(=O)N(C)C[C@@H]2Oc3c(NS(C)(=O)=O)cccc3C(=O)N([C@H](C)CO)C[C@@H]2C)cc1 the “activity change, negative = growth inhibition” value was inactive: -1.9%. For O=[N+]([O-])c1ccc2c(c1)N([O-])C1(CCCCC1)[N+]2=O, the Potency was inconclusive [inhibitor, single point]. In the case of Cn1c(=O)n(Cc2c(F)cccc2Cl)c(=O)c2c1nc1n2CCN1c1ccc(F)cc1, the “activity change, negative = growth inhibition” value is reported as inactive: 1.01%. With O=C(COC(=O)c1cc(=O)[nH]c2ccccc12)Nc1ccccc1F the “activity change, negative = growth inhibition” value was inactive: -3.31%. In the case of NC(=O)c1cccc(-c2csc(C(O)c3cccc(Cl)c3)n2)c1 (stereo not given), the Potency is reported as inconclusive [inhibitor, single point]. In the case of CCN(CC)CCCNC(=O)c1ccc(Cn2c(SCc3ccccc3)nc3cccnc32)cc1, the Potency is reported as inconclusive [inhibitor, single point]. For C=CCn1c2ccccc2c(=O)c2cc(C#CC[C@@H](C)O)ccc21, the Potency was active: 10.3 µM. In the case of CCOC(=O)c1c(-c2ccc(Cl)cc2)csc1NC(=O)CNCc1ccco1, the Potency is reported as inconclusive [inhibitor, partial curve]. In the case of CCc1ccc(C(=O)CSc2nc(N)cc(=O)[nH]2)cc1, the Potency is reported as inconclusive [inhibitor, partial curve]. With Cc1cc(CNC(=O)[C@H](C)[C@@H]2C[C@@]2(C)[C@@H](NC(=O)OCc2ccccc2)c2ccccc2)nn1C the Potency was inconclusive [inhibitor, single point].
